Data as given in PubChem BioAssay (NCI).
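Cultured in 96-well plates, cells were exposed to test compound for 48 hours across five concentrations. GI50 marks 50% less growth. TGI denotes the concentration required for complete inhibition of growth.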

Test system: NCI-H322M lung
Assay: growth of human tumour cells (NCI), 48 h

SMILES	GI50 [µM]	TGI [µM]
CCNC(=O)Oc1ccc(/C(=C(/C)c2ccc(OC)cc2)c2ccc(OCCN3CCCCCC3)cc2)cc1	6.61	13
CCO/C=N/C1=C(C#N)C(c2ccc(Cl)cc2)c2sc3c(CC)cccc3c2O1 (centres undefined)	5.35	19.1
